# Measurements from the supplement of paper PMC3334620.
# The full ranking holds about 33,000 sequences; the median of “E-score (-0.5 to 0.5)” is about -0.013, and the highest 2% start at about 0.3. This is one part of the list.
# Biological target: T1, Msn1 (UniProt P22148)
# T1 sequence: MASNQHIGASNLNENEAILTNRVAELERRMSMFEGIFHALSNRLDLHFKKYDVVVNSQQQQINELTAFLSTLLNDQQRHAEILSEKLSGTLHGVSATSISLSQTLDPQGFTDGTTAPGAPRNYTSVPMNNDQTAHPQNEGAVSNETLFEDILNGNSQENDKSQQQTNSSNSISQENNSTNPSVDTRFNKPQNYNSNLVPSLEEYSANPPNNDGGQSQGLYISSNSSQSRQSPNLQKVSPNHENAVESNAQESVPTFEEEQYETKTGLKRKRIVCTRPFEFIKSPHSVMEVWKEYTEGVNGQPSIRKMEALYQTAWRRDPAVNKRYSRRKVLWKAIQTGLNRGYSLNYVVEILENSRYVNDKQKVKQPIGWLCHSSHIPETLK
# Assay: PBM E-score (8-mer binding enrichment) (E-score (-0.5 to 0.5)); higher = stronger / more preferred TF binding; most listed sequences are background and not binding sites
# Conditions: protein concentration: 200 nM; construct: GST-full length
# Procedure, shortened: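 Each ungapped eight-base word and its reverse complement, pooled, received an E-score from the Universal PBM Analysis Suite. Underlying scans, normalised with masliner, recorded fluorescent anti-GST bound to GST-tagged yeast transcription factors. These were applied at about 100-200 nM to universal all-10-mer Agilent arrays double-stranded by primer extension.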
row,Sequence,PBM E-score
1,CGACCAGC,-0.082
2,ACATTATC,0.167
3,CTAGGCAG,-0.0991
4,AATTCCTA,0.0587
5,ATCCTCTC,-0.18
6,GGGAGGCA,-0.268
7,GTCGCAAA,0.0731
8,CGTACCCC,-0.0691
9,ACAAAGAT,0.259
10,AGGCTGTA,0.0234
11,AGTCATAC,0.14
12,ACCCTACG,-0.173
13,ACCGGGAT,-0.122
14,CGTTCCGA,0.13
15,GCACATCC,-0.0478
16,CGCTCCTC,-0.346
17,TAACCAGA,0.083
18,ACTGCCAT,0.0642
19,ACAATATA,0.165
20,CTATGCAA,0.0505
21,CTCCAGTA,0.057
22,ATGTACAA,0.36
23,ACGGTACC,-0.004
24,ACCTAGGC,-0.235
25,CATCAGTC,0.0092

row,Sequence,PBM E-score
1,ACGTGGAT,-0.102
2,ACGCAGTG,-0.199
3,ACCCCAAC,-0.101
4,CCGAATAG,0.0613
5,CTCTAAGC,0.0961
6,GCTGTGTA,0.0153
7,ACAAAGAC,0.289
8,CATAGGGA,0.0296
9,CCCCCTCA,-0.36
10,ACTCTGCT,-0.171
11,CCACACTC,-0.0712
12,ATGCGAGC,-0.0795
13,ATACAAAA,0.2
14,ACACTTTC,0.0597
15,GCACGTAC,-0.121
16,AAATTGAC,0.079
17,CCTTTTAG,0.0539
18,ATATATAA,0.162
19,ATGTCTCA,0.446
20,CCCGTATA,0.0258
21,AGTTACTC,-0.011
22,ATATTTTG,0.176
23,ACTGTGTA,0.0465
24,ACGCTATA,-0.107
25,TCCTACGA,-0.0195

row,Sequence,PBM E-score
1,TTCCCGAA,0.085
2,AGTGGGGA,-0.185
3,AAGCTCTC,-0.109
4,CCGCGAGA,-0.0866
5,CGAGTCAC,-0.127
6,TCGTATCA,0.102
7,GAGCGCAA,-0.136
8,GCGGGTTA,-0.0146
9,GAAGGATA,-0.142
10,ACAGGCGC,-0.136
11,AGCAGAAG,-0.0203
12,CGTTTGAC,0.12
13,AAATTATC,0.234
14,GACGTAAC,0.142
15,AGATTGAC,-0.198
16,GTGTAGGA,0.0397
17,ATGATCGG,0.0453
18,ACGGTTAA,-0.117
19,GTGTATGA,0.178
20,ATTTATGA,0.206
21,ATCCTTTA,-0.0459
22,AGAGGTAT,0.111
23,CACGCGAA,0.0566
24,AATCTGCA,-0.0868
25,CACAAGTG,-0.247

row,Sequence,PBM E-score
1,CCAGCACA,-0.054
2,CGCTCCGC,-0.0704
3,TAGGCTAA,-0.167
4,GTAGTGAA,0.0152
5,TCTTTGAA,0.00896
6,CACTATCA,-0.0646
7,GAACAAAA,0.287
8,AACCAAAA,0.142
9,CAGTTCAA,-0.0355
10,ACCCAGGA,-0.00044
11,ATTTCTAG,0.0619
12,CCCACATA,-0.0186
13,GAACGGCA,-0.0091
14,CAGCACGA,-0.102
15,CACGTAAC,-0.0236
16,GCCGCTAC,-0.0262
17,AGTATGTG,0.0347
18,AAGCTGTG,0.0979
19,ATGAGCTA,0.00502
20,GGGATTTA,0.0846
21,GTTAAATA,-0.0463
22,ACCATCAT,-0.0869
23,ATCAGCTC,0.00283
24,ATGTAGTA,0.245
25,GCACTGAA,-0.204

row,Sequence,PBM E-score
1,TAAGTCTA,-0.122
2,CTAACCCA,0.024
3,TGTTGAAA,0.119
4,CTTTAGGA,0.0139
5,CGGCCCCC,-0.371
6,TGTGAGAA,-0.0248
7,ACGGGATC,-0.0691
8,TCCACCCA,-0.196
9,GAGAGTCA,-0.0417
10,AGTCCCAA,0.17
11,CGGAGTTC,0.0942
12,AATTGTGA,0.215
13,AACCTTTG,0.0323
14,GGTTAACC,-0.174
15,AAGCGTCA,-0.0802
16,GGCCGCCC,-0.198
17,CGATTCCA,-0.073
18,AACATTCC,-0.0175
19,CGAGGTTC,-0.0645
20,AGGTTACC,0.00639
21,ATGAAACC,0.0454
22,AATCCTAC,-0.195
23,ATTCGGCA,-0.107
24,CATCAAGC,-0.0178
25,AGTCCAGC,-0.0609

row,Sequence,PBM E-score
1,AGTCTTAA,0.11
2,CCATAACA,0.0696
3,ATTGGGTC,-0.0532
4,GTTGAGTA,0.121
5,ACCGCTCG,-0.201
6,CTAGCTAA,-0.126
7,ATTTCTAA,-0.147
8,CCCAGAAC,-0.00938
9,AGCGCGAC,0.0772
10,GAAGGGTC,-0.334
11,GCCCTTAA,-0.0897
12,CGACATCA,0.125
13,AGCGGCGC,0.0394
14,AGATAGTA,0.215
15,GGGAGCCA,-0.287
16,CACTCGTC,-0.0484
17,AGACATAT,0.47
18,GTGATCCA,-0.0635
19,GAACTACA,-0.0933
20,AAAGCCGG,0.0349
21,CCCGACGG,-0.218
22,ATAAGTTC,0.111
23,CATCACAA,0.0752
24,TATCGCCA,-0.0488
25,ACAAGTCT,0.198

row,Sequence,PBM E-score
1,TATCGACA,0.203
2,TACGTGAA,0.0139
3,CTAAGGGA,0.0645
4,AGCGGTCC,-0.0781
5,AATGCCTG,-0.0472
6,CTACTCAG,-0.206
7,GCGGCCTA,-0.152
8,AACAAGAG,-0.224
9,CATGCCAC,-0.149
10,AAAATTAA,0.187
11,CTTTCACA,0.196
12,GAGACGGC,-0.0338
13,CGGCACCA,0.0388
14,CTATGTAC,0.189
15,GGATCAGA,-0.252
16,AATACCAA,0.0722
17,GATTAAGA,0.122
18,AACTAATC,-0.109
19,AATATATC,0.127
20,ATTACCAC,0.0752
21,AGGAAAAT,-0.0421
22,AACTGACA,0.15
